In paper PMC4336329 (PLoS ONE, 2015):
Out of some 310,000 compounds screened, about 14,000 (4.5%) showed an effect of 50% or more. The effect is printed as a negative number. The list shows a part of the results.

Molecular target: human ether-à-go-go-related gene (hERG) potassium channel (human, UniProt Q12809)
Assay: primary screen, population patch clamp on CHO cells stably expressing hERG
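Further: peak tail current of the secondary pulse compared with the same well before compound.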

Chain of human ether-à-go-go-related gene (hERG) potassium channel (Q12809 whole entry, looked up): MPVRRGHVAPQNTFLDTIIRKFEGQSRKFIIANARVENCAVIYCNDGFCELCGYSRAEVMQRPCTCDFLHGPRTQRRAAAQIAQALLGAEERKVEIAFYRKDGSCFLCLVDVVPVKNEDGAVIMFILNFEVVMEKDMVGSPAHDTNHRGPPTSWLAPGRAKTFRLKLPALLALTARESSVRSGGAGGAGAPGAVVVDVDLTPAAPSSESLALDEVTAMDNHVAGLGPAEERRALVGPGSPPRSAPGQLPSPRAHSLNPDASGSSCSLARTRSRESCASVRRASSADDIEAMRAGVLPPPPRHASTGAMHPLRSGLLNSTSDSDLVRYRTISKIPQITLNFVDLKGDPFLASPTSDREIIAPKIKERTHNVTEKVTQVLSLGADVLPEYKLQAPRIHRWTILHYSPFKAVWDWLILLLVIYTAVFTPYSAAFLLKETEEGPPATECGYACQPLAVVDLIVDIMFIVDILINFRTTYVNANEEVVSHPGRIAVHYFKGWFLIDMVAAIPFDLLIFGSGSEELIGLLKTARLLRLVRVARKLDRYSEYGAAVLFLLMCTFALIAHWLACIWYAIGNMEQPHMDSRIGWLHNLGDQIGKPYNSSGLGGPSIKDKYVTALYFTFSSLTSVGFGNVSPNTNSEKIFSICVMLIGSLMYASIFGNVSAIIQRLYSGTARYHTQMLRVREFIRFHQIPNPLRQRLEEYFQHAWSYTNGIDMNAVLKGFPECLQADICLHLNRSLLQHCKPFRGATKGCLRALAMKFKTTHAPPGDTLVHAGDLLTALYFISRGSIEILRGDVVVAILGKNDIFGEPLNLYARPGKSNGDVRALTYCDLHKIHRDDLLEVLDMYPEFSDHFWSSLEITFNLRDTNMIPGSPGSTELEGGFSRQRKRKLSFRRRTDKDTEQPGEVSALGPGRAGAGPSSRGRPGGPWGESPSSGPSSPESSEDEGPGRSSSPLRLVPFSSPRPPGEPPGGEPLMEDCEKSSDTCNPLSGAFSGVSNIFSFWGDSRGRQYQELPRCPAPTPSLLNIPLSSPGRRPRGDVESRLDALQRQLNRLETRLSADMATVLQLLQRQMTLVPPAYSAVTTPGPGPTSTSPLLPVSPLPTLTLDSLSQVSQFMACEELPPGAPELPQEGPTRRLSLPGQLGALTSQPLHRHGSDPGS

Row | Compound | hERG current change (%, negative = inhibition) at 10uM [%]
1 | O=C(Nc1ccc(Cl)cn1)c1cccc2ccccc12 | 6.69
2 | COc1ccccc1N1CCN(C(CNS(C)(=O)=O)c2cccnc2)CC1 (stereo not shown) | 23.2
3 | Cc1[nH]c(=O)c(C#N)c2c1COC(C)(C)C2 | 14.9
4 | Cc1ccc(CN2CCN(Cc3c(C)nn(-c4ccc(F)cc4)c3C)CC2CCO)o1 (stereo not shown) | -34.6
5 | CCOc1ccc(S(=O)(=O)N(C)c2ccc(OCC(=O)NCc3ccco3)cc2)cc1 | -26.3
6 | O=C1CCN(C(=O)CCCn2c(=O)oc3ccccc32)CC1 | 17
7 | O=C(CSc1ncccn1)N/N=C/c1ccccc1[N+](=O)[O-] | 11.3
8 | Cc1ccc(SCc2cc(-c3ccc(Cl)cc3)on2)cc1 | 14.6
9 | Cc1noc(NS(=O)(=O)c2ccc(N/C=C\C(=O)c3ccc(Br)cc3)cc2)c1C | -9.95
10 | COc1ccc(CCc2nc(-c3cccs3)no2)cc1 | -4.11
11 | CC(C)(C)c1cc(CCC(=O)Nc2ccncc2)cc(C(C)(C)C)c1O | -16.6
12 | O=S(=O)(c1cccs1)N1CCC2(CC1)OCCN2S(=O)(=O)c1ccccc1 | -10.2
13 | COc1ccc(C(=O)c2ccccc2)cc1Br | -11.8
14 | O=[N+]([O-])c1ccc2c(c1)ncn2-c1ccccc1 | -21.6
15 | O=C(COC(=O)c1ccccn1)Nc1nccs1 | 10.3
16 | O=C(C[n+]1ccc(Cc2ccccc2)cc1)Nc1ccccc1.[Cl-] | 17.1
17 | O=C(CN1CCN(C(=O)c2cccs2)CC1)Nc1ccc(Br)cc1 | -71.8
18 | CCCCCC(=O)Nc1nc(C)c(-c2csc(Nc3cc(OC)ccc3OC)n2)s1 | 6.78
19 | O=C1NC2=C(C(=O)CCC2)C(c2ccccc2Cl)N1 (stereo not shown) | 26.2
20 | COCCn1ccc2c(OCC(=O)Nc3ccccc3OC)cccc2c1=O | -17.4

Row | Compound | hERG current change (%, negative = inhibition) at 10uM [%]
21 | CCC(=O)N(CCc1ccccc1)Cc1cc2cc(C)ccc2[nH]c1=O | 1.44
22 | CCC(C)NC(=O)CN1C(=O)NC2(CCc3ccccc3C2)C1=O (stereo not shown) | 7.05
23 | Cc1ccc(CN2CCN(Cc3cn(C)nc3-c3ccccc3)CC2CCO)o1 (stereo not shown) | 1.84
24 | CC(C)(C)c1cc(-c2n[nH]c(=S)n2-c2ccccc2F)n[nH]1 | 18.3
25 | Oc1ccccc1-[n+]1c(-c2ccccc2)cc(-c2ccccc2)cc1-c1ccccc1.[O-][Cl+3]([O-])([O-])[O-] | -71.2
26 | O=C(C[n+]1ccccc1)N/N=C/c1cccc(Cl)c1Cl.[Cl-] | 13.4
27 | NC(Cc1c[nH]c2ccccc12)C(=O)NCc1ccco1 (stereo not shown) | 13.5
28 | CC(=O)NC1(C(Cl)(Cl)Cl)Oc2ccccc2O1 | 18.7
29 | NC(=S)Nc1cccc2cc3ccccc3cc12 | 2.73
30 | COc1ccc(-n2nc3c(=O)[nH][nH]c3cc2=O)cc1 | 16.5
31 | On1nnc2ccc3ccccc3c21 | 18.2
32 | COc1cc(CN(C(=S)NCC(=O)NC2CCCC2)C2CCCC2)cc(OC)c1OC | -13.9
33 | COC(=O)C1=C(c2ccc(OCc3ccccc3)cc2)C[C@@H]2CC[C@H]1N2C(=O)NCc1ccccc1 | 8.42
34 | Cn1cc(C(=O)c2cccc(Cl)c2Cl)cc1C#N | -7.11
35 | CC1CC(C(F)(F)F)n2nc(C(=O)O)cc2N1 (stereo not shown) | -7.24
36 | Cn1c(=O)c2c(nc(N3CCN(c4ccccn4)CC3)n2Cc2ccccc2Cl)n(C)c1=O | -16.1
37 | O=C(CSc1nnc(CCc2ccccc2)n1-c1ccc(Cl)cc1)c1ccccc1 | -8.98
38 | O=C(CN(Cc1ccccc1F)S(=O)(=O)c1ccc(Cl)cc1)NCC1CCCO1 (stereo not shown) | -30.4
39 | Cc1ccc(CN2CCN(Cc3cccn3-c3nccs3)CC2CCO)cc1 (stereo not shown) | -77.3
40 | COc1ccc(-c2nnc(SCC(=O)Nc3ccc(C)cc3)n2C)cc1 | 8.19

Row | Compound | hERG current change (%, negative = inhibition) at 10uM [%]
41 | CCOC(=O)N1CCN(C(=O)CNCc2cccs2)CC1.O=C(O)C(=O)O | 4.34
42 | Cc1ccccc1NC(=S)N/N=C/c1ccc(O)cc1O | 14.1
43 | COC(=O)C1=C(c2cccc(OC)c2OC)C[C@@H]2CC[C@H]1N2C(=O)NCCCOC(C)C | 3.16
44 | COc1ccc(Cl)cc1N1C(=O)C2CCCN2C1c1sccc1C (stereo not shown) | 3.88
45 | CCCCSc1ccc2nc(-c3ccc(C#N)cc3)cn2c1 | -15
46 | Cc1ccc2oc(C(=O)NCc3ccc4c(c3)OCO4)c(C)c2c1 | 2.22
47 | CCc1cccc(C)c1NC(=O)N(C)C1CCCCC1 | 6.47
48 | CC(=O)OC(C(=O)N1CCOCC1)c1c(F)cccc1F (stereo not shown) | 16.1
49 | CCN1CCN(c2cc(C)c3cc(NC(=S)NCCCN4CCc5ccccc5C4)ccc3n2)CC1 | -9.67
50 | COc1cc2c(cc1OC)C(C1C(=O)CC(C)(C)CC1=O)N(C(=O)CCl)CC2 (stereo not shown) | -2.65
51 | CC(C)c1ccc(NC(=O)CN(Cc2ccccc2)S(C)(=O)=O)cc1 | -29
52 | O=C(C1CCN(C2CCN(C/C=C/c3ccccc3)CC2)CC1)N1CCOCC1 | -53.4
53 | O=C(Nc1ccc(S(=O)(=O)N2CCOCC2)cc1)c1ccccc1 | -1.1
54 | O=C(O)C(C(=O)Oc1ccccc1)C(C(=O)O)C(=O)Oc1ccccc1 (stereo not shown) | 45
55 | CN1CCN(C(=S)c2ccc([N+](=O)[O-])cc2)CC1 | 9.47
56 | O=C(CSc1n[nH]c(=O)n1C1CC1)Nc1ccccc1 | 17.3
57 | CCOC(=O)C(C)Sc1nc2c(cnn2-c2ccc(C)cc2)c(=O)[nH]1 (stereo not shown) | 10.9
58 | CCC(NC(=O)NC1=NCCS1)(C(F)(F)F)C(F)(F)F | 6.68
